# Test results from the RNAGym collection of RNA variant scans (doi:10.7554/elife.90254).
# The source gives no read counts; variants with many changes may rest on few reads.
# B1: LINE1-mini (parent)
# chain: GGCAGAGCUCAACACAGCGUGGCAAAGUGGCUGUGGCUAGACUGCC
# Variants of: B1
# Experiment: self-cleavage, relative activity (ratio to wild type); higher = more cleavage; in vitro, sequencing; the parent is a self-cleaving ribozyme
row,Variant,self-cleavage
1,GGCAGAGCUCAACACAGCCUGGCAAAGUGGCUGUGGCUAGACCGCU [G19C U43C C46U],0.04
2,GGCAUAGCUCAACACAGCGUGUCAAAGUGGCUGUGGCGCGACUGCC [G5U G22U U38G A39C],0.07
3,GGCAGAGCUCAACACAGCUUGGCAAAGUGUCUGUGGCUAGACUGGC [G19U G30U C45G],0.1
4,UGCAUCGCUCAACUCAGCGUGGCAAAGUGGCGGUGGCUAGACUGCC [G1U G5U A6C A14U U32G],0.03
5,GGCAGAGAUCAGCACAGCGUGGCGAAUUGGCGGUCGCUAGACUGCC [C8A A12G A24G G27U U32G G35C],0.02
6,GGCAGAGCUCAACACAGCGUGGCUAAGUGGCUGCGCCUAGACUGCC [A24U U34C G36C],0.06
7,AGCAGAGCUCAAGACAGCGUGGCAAAGUGGCUGUUGCUCGACUGCC [G1A C13G G35U A39C],0.18
8,CGCAGAGCUCAACACAGCGUGGCAAAGUGUCUGUGGCUGGAGUGCC [G1C G30U A39G C42G],0.01
9,GACAGAGCUCAACACUGCGUGGCAAAGUGGCUGUGGCUAGUCUGGC [G2A A16U A41U C45G],0.28
10,GGCAGAGCUCAACAUAGCGUUGCAAAGUGGCUGUGGCUACACUGCC [C15U G21U G40C],0.02
11,GGCAGAGCUCAACACACCCUGGCAAACUGGCCGUGGCUAGAGUGCC [G17C G19C G27C U32C C42G],0.03
12,GGCGGAACUCAGCACAGCGUGGCAAAGUAGCUGUGGCUAGACUGCC [A4G G7A A12G G29A],0.03
13,GGCAGAUCUCAACACAGCGUGGCAAAGUAGCUGUGACUAGACUGCC [G7U G29A G36A],0.09
14,GGCAGAGCUCAACACAGCGUGGCAAAGUGGCUGUGGCAUAACAGCC [U38A A39U G40A U43A],0.09
15,GGCAGAGCUAACCACCGCGUGGCAAAGUCGCUGUGGCUAGACUGCC [C10A A12C A16C G29C],0.03
16,GGCAGAGCUCGACACAGCGUGGCAAAGUCGCUGUGGCUUGACUGCC [A11G G29C A39U],0
17,GGCAGAGCUCAUCACAGCGUGGCAAAAUGGCUGUGGCUAGACUUCC [A12U G27A G44U],0.11
18,GGCAGAGCUCAACACAGCAUGGUAAAACGGCUGUGGCUAGACUACA [G19A C23U G27A U28C G44A C46A],0.1
19,GGCAGUGCUCAACACAGGAUGGUAAAGUGGAUGUCGCUAUACUGCG [A6U C18G G19A C23U C31A G35C G40U C46G],0.01

row,Variant,self-cleavage
1,GGGAGAGAUCAUCGCAGCGUGGCAAAGUGGCUGUGGCUAGACUCCC [C3G C8A A12U A14G G44C],0.07
2,GGCAGCGCUCAGCACAGCGUGGCAAAGUGGCUGUGGCUACACUGCC [A6C A12G G40C],0.04
3,GGCAGAGCUCAGCACAGAGUGGCAAAGUGGCUGUGGCUAGGCAGCC [A12G C18A A41G U43A],0.04
4,GGCAGAGCUCAACACAGCGUGACUAAGUGGCUGUGGCUUGACUGCC [G22A A24U A39U],0.55
5,GGCAGAGCUCAACACAGCGUUGCAAAGUGGCUGUGGGUAGAGUGCC [G21U C37G C42G],0.04
6,GGCAGAGCUCAACACAGCGUGGCAAAGUGCCGGUGGUUAGCCUGCC [G30C U32G C37U A41C],0.02
7,GGCAGAGCUCAACGCAGCAUGGCAUACUGGCUGUGGCUAGACUGCC [A14G G19A A25U G27C],0.62
8,GGCAGAGCUCAACACAGCGUGGCAAAGUGUAUGGGGCUAGACUGCC [G30U C31A U34G],0.06
9,GGCAGAGCUCAACACAGCGUGGCAAAGUCGAUGUGUCUAGGCUGCC [G29C C31A G36U A41G],0.03
10,GGCAGAGCUCAACACAGCGUUACAAACUGGCUGUGGCUAAACUGCC [G21U G22A G27C G40A],0.09
11,GGCAGAGCGCAACAUAGCGUGGCAAAGUGGCUGUGGCUAGACCGCC [U9G C15U U43C],0.05
12,GCCAGACCUCAACACAGCGUGGCAAAGUGGUUGUGGCUAGACUGAC [G2C G7C C31U C45A],0.05
13,GGCAGAACUCUACACAGCAUGGCAAAGUGGCUUUGGCUAGACUGCC [G7A A11U G19A G33U],0.03
14,GGCAGAGGUCAACACAGCGUGGCAAAGUGGCUGUGGCUAGAGUCCC [C8G C42G G44C],0.03
15,GGCAGAGCUCAACACAGCGUGGAAACCUGGCUGUGGAUAGACUGCC [C23A A26C G27C C37A],0.01
16,GGCAGAGCUCAAUACAGCUUAGCAAAGUGUCUCUGGCUAUACUGCC [C13U G19U G21A G30U G33C G40U],0.03
17,GGCAGAGCACAACACAGCGUUGCAAAGUGGCAGUGGCUAGAAUGCC [U9A G21U U32A C42A],0.03
18,GGCGGAGCUCAACACAGCGUGGAAUAGUGCCUGUGGCUAGACUGCC [A4G C23A A25U G30C],0.6
19,GCCAGACCUGAACACAUCGUGGCAAAGUGGUUGUGGCUAGACUGCC [G2C G7C C10G G17U C31U],0.03

row,Variant,self-cleavage
1,GGCAGAGCUCAACACAGGGUGGAAAAGUGGCUGCUGCUAGACUGCC [C18G C23A U34C G35U],0
2,GUCAAAGCUCAUCGCAGCUCGGUAAUGUGUCUGUGGCUAGACUGCC [G2U G5A A12U A14G G19U U20C C23U A26U G30U],0.01
3,UGCACCGCUCAACACAGCAUGGCAAACUGGUUGUGGCUAGACUACC [G1U G5C A6C G19A G27C C31U G44A],0.13
4,GGAAGAGCUCAACACAUCGAGGAAAUGUUGCUGUGGCUAGACUGCC [C3A G17U U20A C23A A26U G29U],0.06
5,GGCAGAGAUCAGCACAGCGAGGCAGAGUGGUAGUAGCUAGACUGCC [C8A A12G U20A A25G C31U U32A G35A],0.06
6,GGCAUAGCUCAACACAGCGUGGCAAAGUCGCUGUGGCUAUACUGCC [G5U G29C G40U],0.02
7,GGCAGAGCUCAACACAGCGUGGCGAAGUGGCUGCGGCUAUACUACC [A24G U34C G40U G44A],0.07
8,GGCGGAGCGCAACACAGCGUGGUAAAGUGGCUGGGGCUUGACUGCC [A4G U9G C23U U34G A39U],0.03
9,GACAGAGUUCUAGACAGCGUGGCAAAGUGGCUUUGGCCAGACUACU [G2A C8U A11U C13G G33U U38C G44A C46U],0.01
10,GCCAGAGCUCAACACAGGGUGGCAAAGUGGCUAUGGCAAGACUGCC [G2C C18G G33A U38A],0.16
11,GGACGAUCUCAACACAGCGUGGCAAAUAGGCUGUGGCAAGACUGCC [C3A A4C G7U G27U U28A U38A],0.21
12,GGCUGAGCUCACCACAGCGUGGCAAACUGGCUGUGGCUAGACCGCC [A4U A12C G27C U43C],0.02
13,GGCAGAGCUCAACACACCGUGGCAAAGUGGCUUUGGCUACACUGCC [G17C G33U G40C],0.08
14,GGCAGAGCUCAACACAGCGUGGCCAAGUGGCUGUGGCGAGAAUGCC [A24C U38G C42A],0.01
15,GGCAGAGCUCAAUACAGAGUGGCAAAGUAGCUGUGGCUAGACUGCC [C13U C18A G29A],0.02
16,GCCAGAGCUAAACACAGCUUGGCAAAGUGGCUGUGGCUAGACUGAC [G2C C10A G19U C45A],0.01
17,GGAAGAGGUAAACUCAGCGUGGCAAAGUGGCUGUGGAUAGUCUGCC [C3A C8G C10A A14U C37A A41U],0.02
18,GGCAGAGCUCAACACAUCGUAGCAAAGUGGCCGCGACUAAACUGCC [G17U G21A U32C U34C G36A G40A],0.06
